# PubChem BioAssay AID1345083 (National Center for Advancing Translational Sciences (NCATS), 2018)
# Values joined by “and” are separate entries in the source; they are usually repeats but may differ in a detail not shown here. Identical values can stand only once. Screen size: about 94,000 compounds; about 6,200 (6.6%) were called active. This list was built around the results that the source calls inconclusive (neither active nor inactive); the mix of calls is not that of the screen. Calls come from the whole dose curve; as a rule, active = well fitted inhibition curve with a large enough effect; inconclusive = small, poorly fitted or top-dose-only effect; inactive = flat fitted curve, though single readings scatter. Potencies of inconclusive entries are doubtful fits and often do not repeat.
# Experiment: Cytotoxic Profiling in HEK 293 Cell Line of Diverse Libraries Using Quantitative High-Throughput Screening; note: nearly all actives have a fitted effect of over 60% in size
# Details: HEK 293 viability, ATP luminescence (CellTiter-Glo), 48-72 h; series mostly up to 115 µM
# Summary of the method: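 HEK 293 cells seeded at 250 cells/well were exposed to compound for 48 or 72 hr at 37 degree Celsius. Viability taken as ATP content by CellTiter-Glo luminescence.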
# Potency is the fitted concentration of half-maximal effect; tags give direction and shape of the fitted curve.
row,SMILES,Potency
1,CC(C)CCN1CCc2nc(C(=O)Nc3ccc(Cl)cc3)oc2CC1,"inconclusive: 112 µM [inhibitor, partial curve, poor fit]"
2,O=C(C1CN(C2CCCCC2)C(=O)N1)N1CCC(c2ccccc2)CC1 (stereo not given),"inconclusive: 79.4 µM [inhibitor, partial curve]"
3,CCn1c(C2CCCN(C(=O)C(C)C)C2)nn(C)c1=O (stereo not given),inactive
4,Cc1ccc(C(=O)N2CCC(n3cc(-c4nc(C(C)C)no4)nn3)C2)cc1 (stereo not given),"inconclusive: 22.4 µM [inhibitor, full curve, poor fit]"
5,CC1(C(=O)NCc2cnccn2)CCCc2cnc(Nc3ccccc3F)nc21 (stereo not given),"inconclusive: 100 µM [inhibitor, partial curve, poor fit]"
6,CCCN(CC1CCOC1)S(=O)(=O)c1ccc(C(F)(F)F)cc1 (stereo not given),inactive
7,O=C(NCCOc1ccccc1)[C@@H]1C[C@@H](c2ccc(F)cc2)N([S+](=O)([O-])c2ccccc2)C1,"inconclusive: 35.5 µM [inhibitor, full curve]"
8,CC(C)c1ccc(CC(=O)N2CCCc3ncc(C(=O)NCCN(C)C)cc32)cc1,"inconclusive: 126 µM [inhibitor, single point]"
9,CCOC(=O)C1(Cc2cccc(OC)c2)CCCN(C(=O)CCn2ccnc2C)C1 (stereo not given),inactive
10,COc1cc(NC(=O)O[C@@H]2CC[C@]3(C)C(CC[C@@H](O)[C@H]3CC(=O)N3CC[C@@H](O)C3)[C@]2(C)CO)cc(OC)c1OC (stereo not given in full),inactive
11,Cc1noc2c(-c3cccnc3N3CC(O)C3)cc(-c3ccccc3)nc12,"inconclusive: 79.4 µM [inhibitor, partial curve]"
12,C#CCN(C)C(=O)c1onc(-c2ccc(OC)cc2)c1[C@H](C)O,inactive
13,CN1C(=O)N(C)C2(CCN(Cc3cc(F)ccc3F)C2)C1=O (stereo not given),inactive
14,Cc1nn2c(c1-c1ccccc1OCc1ccccc1)N(C(=O)C1CCC1)CCC2,active: 39.8 µM
15,O=C(NCCc1ccccc1)c1nc2sccn2c1-c1ccc(F)cc1,"inconclusive: 31.6 µM [inhibitor, full curve, poor fit]"
16,CCc1noc(-c2cn(C3CCN(C(=O)c4cccc(Cl)c4)CC3)nn2)n1,"inconclusive: 79.4 µM [inhibitor, partial curve]"
17,Cc1nnc([C@@H]2CC(F)(F)CN2S(=O)(=O)c2cccc(F)c2)o1,inactive
18,COc1ccc(-c2nnc3n2CCN(C(=O)c2cccc(Cl)c2)C3)cc1,inactive
19,CN(CCn1cc(-c2nccn2C)nn1)S(C)(=O)=O,inactive
20,CN1CCN(c2ccc3ncc(Nc4cccc(C(F)(F)F)c4)n3n2)CC1,active: 100 µM
21,O=C(c1ccc(F)cc1)N1CCCC2(CNc3ncccc3[S+](=O)([O-])N2)C1 (stereo not given),inactive
22,O=C(c1ccc(C(F)(F)F)cc1)N1CCC2(CC1)CNc1ccccc1[S+](=O)([O-])N2,active: 50.1 µM

row,SMILES,Potency
1,O=C(Cn1ccn2nc3c(c2c1=O)CCCCC3)Nc1cc(F)ccc1F,"inconclusive: 79.4 µM [inhibitor, single point]"
2,O=C(NCc1ccc(C(F)(F)F)cc1)C1CCCN1c1nccc(Nc2ccccc2F)n1 (stereo not given),"inconclusive: 56.2 µM [inhibitor, partial curve, poor fit]"
3,CS(=O)(=O)N1CCC(CC(=O)N2CC=C(c3ccccc3)CC2)C1 (stereo not given),inactive
4,COc1ccc(-c2cc(C(=O)N3CCC(Cc4ccccc4)CC3)c3cnn(C)c3n2)cc1,"inconclusive: 20 µM [inhibitor, full curve, poor fit]"
5,COc1cccc(C(=O)N2CCN(c3nccc(Nc4ccccc4Cl)n3)CC2)c1,active: 35.5 µM
6,Cc1ccc2nc(SCCC(=O)N[C@@H]3C[C@@H]4OCC[C@@H]43)cc(C)c2c1,inactive
7,O=C1NCCCCCCN(C(=O)C2CC2)[C@H]2C[C@H](C(=O)N3CCc4ccccc4C3)C[C@@H]12,"inconclusive: 50.1 µM [inhibitor, partial curve, poor fit]"
8,O=C(CCc1conc1-c1cccc(F)c1)NCc1ccc(F)cc1,"inconclusive: 79.4 µM [inhibitor, single point]"
9,O=C(c1cc(F)ccc1F)N1CCCC2(C1)NC(=O)N(Cc1ccccc1)C2=O (stereo not given),inactive
10,Cc1cc2nc(CO[C@H]3CN(Cc4ccc5c(c4)OCO5)C[C@H]3F)[nH]c2cc1C,"inconclusive: 100 µM [inhibitor, partial curve]"
11,Cc1ccsc1C(=O)N1CCc2nnc([C@@H]3C[C@@H](O)CN3C)n2CC1,inactive
12,Cc1ccccc1CN1CCC2(Cc3ccccc3CNC2=O)C1 (stereo not given),"inconclusive: 100 µM [inhibitor, single point]"
13,CCC(=O)N1Cc2ccccc2CC2(CCN(Cc3ccc(O)cc3)C2)C1 (stereo not given),"inconclusive: 56.2 µM [inhibitor, partial curve, poor fit]"
14,CC(C)CCN1C[C@@H]2C(=O)N(CCc3ccccc3)C(=O)[C@@H]2C1,"inconclusive: 89.1 µM [inhibitor, single point]"
15,O=C(CC[C@@H]1CNC(=O)[C@@H]2C[C@H](NC(=O)c3cccc(F)c3)CN12)NC1CC1,inactive
16,O=C([C@H]1C[C@H](Oc2ccccc2)CN1C(=O)CCc1ccccc1)N1CCOCC1,inactive
17,Cc1cc(=O)n(CC(=O)Nc2cc(Cl)ccc2C)c(N2CCN(c3ccccc3)CC2)n1,"inconclusive: 89.1 µM [inhibitor, single point]"
18,Cc1ccc2nc(C3CCCN(Cc4ccccc4)C3)[nH]c(=O)c2c1 (stereo not given),"inconclusive: 56.2 µM [inhibitor, partial curve, poor fit] and active: 63.1 µM"
19,COc1cc2c(cc1-c1ccco1)OCC(C)(C)CC2CO (stereo not given),"inconclusive: 79.4 µM [inhibitor, partial curve, poor fit]"
20,CCCCn1c(=O)c(C(=O)N2CCCCC2)nc2cccnc21,inactive
21,O=c1[nH]c(C2CCCN([S+](=O)([O-])c3cccc(C(F)(F)F)c3)C2)nn1-c1ccccc1 (stereo not given),"inconclusive: 56.2 µM [inhibitor, partial curve, poor fit]"
22,COc1ccc(CN2Cc3[nH]nc(-c4ccnn4C)c3CC2=O)cc1,active: 112 µM

row,SMILES,Potency
1,CCN1c2cc(C(=O)NCc3ccccc3OC)ccc2C(=O)N2CCCCC21 (stereo not given),"inconclusive: 89.1 µM [inhibitor, single point]"
2,COc1cc(NC(=O)Cn2ccn3nc(-c4ccccc4)c(CO)c3c2=O)cc(OC)c1,inactive
3,Cc1cc(C)c(CN2CCC3(Cc4ccccc4CNC3=O)C2)c(C)c1 (stereo not given),"inconclusive: 44.7 µM [inhibitor, partial curve, poor fit]"
4,CC(C)CC1=NS(=O)(=O)c2cc(NC(=O)C3CC3)ccc2N1c1ccccc1,"inconclusive: 50.1 µM [inhibitor, partial curve, poor fit]"
5,CCOC(=O)C1=C(C)N=C2SC=C(CC(=O)Nc3ccc(C)c(C)c3)N2C1c1cccc(OC)c1 (stereo not given),active: 44.7 µM
6,CSc1ccc(-c2nc(CN(C)Cc3cc(C)no3)c(C)o2)cc1,"inconclusive: 79.4 µM [inhibitor, partial curve, poor fit]"
7,CC(C)c1noc(-c2cn(C3CCN(C(=O)c4cc5ccccc5[nH]4)C3)nn2)n1 (stereo not given),"inconclusive: 22.4 µM [inhibitor, full curve]"
8,CN1C(=O)C2(CCN(C(=O)Cc3ccccc3Cl)C2)c2ccccc21 (stereo not given),"inconclusive: 100 µM [inhibitor, single point]"
9,Clc1ccc(C2Cn3nnc(-c4noc(Cc5ccccc5Cl)n4)c3CO2)cc1 (stereo not given),"inconclusive: 50.1 µM [inhibitor, partial curve, poor fit]"
10,COc1ccccc1C(=O)N1CCCN(c2ccc3nnc(C)n3n2)CC1,inactive
11,COc1cccc(-c2cc(C(=O)NCc3cccnc3)c3c(c2)N(C)CCO3)c1OC,"inconclusive: 112 µM [inhibitor, partial curve, poor fit]"
12,CCCN(C)c1nccnc1OC1CCN(C(=O)c2c(F)cccc2F)C1 (stereo not given),"inconclusive: 50.1 µM [inhibitor, partial curve, poor fit]"
13,O=C(NC1CCCC1)NC1CCN(Cc2cccc(-c3cccs3)c2)CC1,"inconclusive: 15.8 µM [inhibitor, full curve]"
14,Cc1ccccc1Cn1cc(-c2ccncc2)cc1C(=O)NCc1ccncc1,"inconclusive: 56.2 µM [inhibitor, partial curve, poor fit]"
15,COc1ccccc1-c1cccc(CN2CCCC(C(=O)NC3CCOC3)C2)c1 (stereo not given),"inconclusive: 50.1 µM [inhibitor, partial curve, poor fit]"
16,Cc1ccnc(NC(=O)C2CC(=O)N(c3n[nH]c4cc(Br)ccc34)C2)c1 (stereo not given),"inconclusive: 89.1 µM [inhibitor, single point]"
17,O=C(NCc1cccc(Cl)c1)C1CCN(C(=O)c2ccc(-c3cncnc3)cc2)CC1,"inconclusive: 50.1 µM [inhibitor, partial curve, poor fit]"
18,Cc1cccc(-n2c(=O)c3c(cc(C)n3C)n(CC(=O)Nc3ccccc3F)c2=O)c1,"inconclusive: 89.1 µM [inhibitor, single point]"
19,CCC1(O)CCC12CCN(C(=O)CCc1nc3ccccc3s1)CC2 (stereo not given),"inconclusive: 89.1 µM [inhibitor, partial curve, poor fit]"
20,CC(C)C(=O)N1CCC(N2C[C@H](O)C[C@H]2C(=O)NC2CCCCC2)CC1,inactive
21,NCCc1cccc(CN2CCC(Oc3cccc(F)c3)CC2)c1,"inconclusive: 56.2 µM [inhibitor, partial curve, poor fit]"
